Hit rate of the full screen: of about 45,000 compounds, about 65 (0.1%) were called active. Calls come from the whole dose curve; as a rule, active = well fitted activation curve with a large enough effect; inconclusive = small, poorly fitted or top-dose-only effect; inactive = no such curve, though single readings can be large or run the other way. This is one part of the list.

This experiment has as its target Galactocerebrosidase (Homo sapiens) (UniProt P54803). The experiment in a line: A Novel Cell-Based Assay to Identify Small Molecules for B -Galactocerebrosidase. Note: 0% is about no effect; nearly all actives have a fitted effect of over 65% in size. The note with it: 145M-Twi-hGALC-G270D cells (Twitcher mouse brain line with human GALC G270D), HMU-beta-Gal fluorescence, 48 h; series mostly up to 57.5 µM; activation: at the top concentration. The essentials: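 Mutant human GALC (G270D), stably expressed in a Twitcher mouse brain cell line lacking endogenous GALC, is measured in live-treated cells via 6-hexadecanoylamino-4-methylumbelliferyl-β-galactoside hydrolysis (0.1 mM final, pH 5.2) with fluorescent detection.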
Chain of UniProt P54803 (P54803 whole entry, looked up): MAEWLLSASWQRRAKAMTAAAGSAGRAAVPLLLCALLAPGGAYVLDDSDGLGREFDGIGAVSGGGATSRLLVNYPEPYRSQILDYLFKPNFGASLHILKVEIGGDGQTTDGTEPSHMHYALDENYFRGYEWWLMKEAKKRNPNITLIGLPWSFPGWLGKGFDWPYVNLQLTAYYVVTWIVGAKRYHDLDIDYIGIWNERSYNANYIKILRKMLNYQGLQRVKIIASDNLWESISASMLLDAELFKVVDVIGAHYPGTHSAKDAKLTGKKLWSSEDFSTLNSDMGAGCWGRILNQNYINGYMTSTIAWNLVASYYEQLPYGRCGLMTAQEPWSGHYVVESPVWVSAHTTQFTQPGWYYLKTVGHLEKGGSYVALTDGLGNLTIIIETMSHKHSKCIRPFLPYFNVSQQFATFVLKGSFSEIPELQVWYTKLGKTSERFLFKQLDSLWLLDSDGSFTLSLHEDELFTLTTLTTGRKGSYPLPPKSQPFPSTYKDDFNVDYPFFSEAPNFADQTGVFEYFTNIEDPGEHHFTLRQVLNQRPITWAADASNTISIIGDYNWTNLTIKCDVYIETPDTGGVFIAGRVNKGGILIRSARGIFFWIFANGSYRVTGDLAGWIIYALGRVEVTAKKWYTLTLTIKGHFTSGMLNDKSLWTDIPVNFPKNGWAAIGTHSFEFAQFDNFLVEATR
Regarding `Cc1cccc(-c2nc(CCNC(=O)COc3ccccc3)cs2)c1`, the “activation” value was inactive: -13.1%.
In the case of `CC(NC(=O)CN1C(=O)COc2ccc(S(=O)(=O)N3CCCCCC3)cc21)c1ccccc1` (stereo not drawn) it was inactive: -4.29%.
With `Cc1ccc(Sc2c(C(=O)NCc3cccc(F)c3)[nH]c3ccccc23)cc1` the figure was inactive: -5.76%; with `CC(C)Oc1ccc(CN2CCc3nc(Nc4ccc5c(c4)OCCO5)ncc3C2)cc1`, inactive: -9.23%; with `COC(=O)c1ccc(NC(=O)CN2CCCN(Cc3ccc(Cl)cc3)S2(=O)=O)cc1`, inactive: -43.1%.
With `CCOCCCn1c(SCC(=O)Nc2cc(C)ccc2C)nc2c(oc3ccccc32)c1=O` the figure was inactive: -13.7%.
As to `CCN1CCc2c(sc(NC(=O)c3ccc(S(=O)(=O)N(CCOC)CCOC)cc3)c2C(N)=O)C1`, the “activation” value is inactive: -26.6%.
With `Cc1ccc(-c2nc3cc(NC(=O)c4cc5ccccc5o4)ccc3o2)cc1Cl` the figure was inactive: -11.1%.
`Cc1c(C(=O)N(C)C)sc2c1c(=O)n(-c1ccc(Cl)c(Cl)c1)c(=O)n2CC(=O)C(C)(C)C`: the “activation” value was inactive: -3.36%.
As for `COc1ccccc1CNC(=O)CCC(=O)N1CC(C)Sc2ccccc21` (stereo not drawn), the “activation” value was inactive: 1.01%.
In the case of `COc1ccc(OC)c(NC(=O)CSC2=Nc3ccccc3C3=NC(CCC(=O)NCc4ccccc4)C(=O)N23)c1` (stereo not drawn) it was inactive: -15.9%; in that of `O=C(COc1ccc(Cl)cc1)N(Cc1ccco1)Cc1ccco1`, inactive: -7.13%.
In the case of `Cc1ccc(NC(=O)CSc2nc3ccccc3n2CC(=O)N2CCC(C)CC2)cc1C`, the “activation” value is inactive: 3.04%.
Regarding `CCCN(c1ccc(C(C)C)cc1)S(=O)(=O)c1ccc2c(c1)n(C)c(=O)c(=O)n2C`, the “activation” value is inactive: -15.7%.
`CCc1nn(CC(=O)N2CCC(C)CC2)c(=O)c2cc3occc3n12`: the “activation” value was inactive: -10.1%.
With `Cc1csc2nc(COC(=O)c3cccc(NC(=O)c4cccc(Cl)c4)c3)cc(=O)n12` the figure was inactive: 5.86%.
As to `Cc1cccc(N2CCN(C(=O)CN3C(=O)COc4ccc(S(=O)(=O)N5CCC(C)CC5)cc43)CC2)c1C`, the “activation” value was inactive: -5.49%.
With `O=S(=O)(Nc1cccc(C(F)(F)F)c1)c1ccc(NS(=O)(=O)c2ccc3c(c2)OCCO3)cc1`, the “activation” value is inactive: 0.0545%.
With `COc1ccc(C(=O)Nc2cccc(-c3cn4ccsc4n3)c2)c(OC)c1` the figure was inactive: -0.251%; with `COc1ccc(Cl)cc1NC(=O)Cn1c(=O)oc2cc(S(=O)(=O)N3CCCCCC3)ccc21`, inactive: -18.4%; with `O=C(c1cccs1)c1cn(CCOc2ccc(Cl)cc2)c2ccccc12`, inactive: -12.8%.
In the case of `CC1=C(C(N)=O)C(c2cccc(O)c2)n2ncnc2N1` (stereo not drawn) it was inactive: -22.6%.
For the compound `Cc1ccc2sc(N(Cc3cccnc3)C(=O)Cc3ccccc3)nc2c1C`, the “activation” value is inactive: -13.8%.
Turning to `Cc1ccc(-n2nc3c(N4CCC(C(=O)NC5CCC(C)CC5)CC4)nnc(C)c3c2C)cc1` (stereo not drawn), the “activation” value is inactive: -10.5%.
In the case of `CCOc1ccc(N(CC(=O)Nc2cc(OC)cc(OC)c2)S(=O)(=O)c2c(C)[nH]c(=O)[nH]c2=O)cc1` it was inactive: -11.6%.
With `CCC(=O)Oc1cc(C(C)(C)C)cc2cc(-c3nc(-c4ccc(OC)cc4OC)no3)c(=O)oc12` the figure was inactive: 9.14%.
In the case of `C[N+](C)(C)CCOC(=O)CCC(=O)OCC[N+](C)(C)C` it was inactive: -6.88%; in that of `CN(C)CCNC(=O)c1ccc(Cn2c(SCc3ccc(F)cc3)nc3cccnc32)cc1`, inactive: -4.72%.
For the compound `Cc1ccc(C(=O)c2cn(Cc3ccccc3F)c3cc4c(cc3c2=O)OCCO4)cc1`, the “activation” value was inactive: -11.2%.
For `Cc1nc(C2CCCCC2)c(-c2ccc(S(N)(=O)=O)c(F)c2)o1`, the “activation” value was inactive: -14.2%.
With `CCn1c2ccccc2c2nnc(N3CCN(c4cccc(Cl)c4)CC3)nc21` the figure was inactive: 2.9%; with `CCOC(=O)c1c(C)[nH]c(CCC(=O)NCc2ccc(OC)c(OC)c2)c1C`, inactive: -17.4%; with `Cc1ccc(CN2CCSc3ccc(C(=O)NCc4ccc(OC(C)C)cc4)cc32)cc1`, inactive: -4.02%.
With `Cc1cc(NS(=O)(=O)c2ccc(N)cc2)nc(C)n1` the figure was inactive: -13.2%; with `COc1ccc(-c2noc(CCCC(=O)Nc3cccc(Cl)c3C)n2)cc1`, inactive: -21.6%; with `COc1ccc(CNC(=O)Cc2c(C)c3cc4c(C)coc4cc3oc2=O)cc1`, inactive: -0.927%.
As to `CSc1nn(CC(=O)Nc2ccccc2F)c(N)c1S(=O)(=O)c1ccccc1`, the “activation” value is inactive: -4.16%.
In the case of `COCCCNC(=O)Cn1c(=O)n(-c2cccc(C)c2)c(=O)c2c1c1cc(C)ccc1n2C` it was inactive: -6.01%; in that of `CCc1ccc(NC(=O)CCc2c(C)nc3nc(-c4cc(OC)cc(OC)c4)nn3c2C)cc1`, inactive: 9.67%; in that of `Cc1ccc(N2CCn3c2nc2c3c(=O)n(C/C=C/c3ccccc3)c(=O)n2C)cc1C`, inactive: -4.57%.
In the case of `COc1ccc(C2CC(=O)c3c([nH]c(C(=O)OCc4ccccc4)c3C)C2)cc1` (stereo not drawn) it was inactive: -25.1%.
In the case of `COc1cccc(/C=C/c2onc(C)c2S(=O)(=O)N2CCC(C(=O)N3CCCCC3)CC2)c1` it was inactive: -7.41%; in that of `Cc1ccc(OCCn2cc(C(=O)c3cccs3)c3ccccc32)cc1`, inactive: 4.41%; in that of `COCc1cc(C)nc2sc(C(=O)Nc3ccccc3O)c(N)c12`, inactive: -7.95%.
`COc1ccccc1-c1c(C)nn2c(-c3ccccc3)cc(-c3ccccc3)nc12`: the “activation” value is inactive: -12.5%.
For the compound `CCOc1ccc(C2=NC(c3ccncc3)=Nc3ccc(C)cc3N2)cc1OCC`, the “activation” value was inactive: -16.3%.
In the case of `Cc1cccc(N2CCN(C(=O)Cn3nc(C)c4sc5ccccc5c4c3=O)CC2)c1C` it was inactive: -15.1%; in that of `Cc1ccsc1/C=C/C1=NCCCN1C`, inactive: -2.34%.
With `COc1cccc(C(=O)Nc2ccc(-n3nncc3-c3ccccc3)cc2)c1OC` the figure was inactive: -9.52%.
In the case of `COc1ccc(CNC(=O)Cn2c(=O)nc(-c3ccccc3)c3cc(Cl)ccc32)cc1OC` it was inactive: -18.8%; in that of `CCCSCCCNC(=O)C1CCN(C(=O)c2cnn(-c3ccccc3)c2-n2cccc2)CC1`, inactive: 7.52%.
As to `COc1ccccc1NC(=O)C1=C(C)Nc2c(C(=O)Nc3ccc(C)cc3)cnn2C1c1cccc(OC)c1OC` (stereo not drawn), the “activation” value was inactive: -1.1%.
In the case of `COc1ccc(N(Cc2ccccc2)C(=O)c2nc(S(C)(=O)=O)ncc2Cl)cc1` it was inactive: -19.5%; in that of `Cc1ccccc1NC(=O)c1cc2c(-c3ccccc3)nn(-c3ccccc3)c2s1`, inactive: -8.45%.
With `COc1ccc(NC(=O)CSc2nc(-c3cccs3)cc(C(F)(F)F)n2)cc1Cl` the figure was inactive: -10.1%; with `CCc1ccc(NCc2cc3ccc(OC)cc3n(CC(=O)Nc3ccccc3C)c2=O)cc1`, inactive: -23%.
With `CC(=O)c1cccc(NC(=O)CSc2nc3c(c(=O)[nH]2)CCC3)c1` the figure was inactive: -13.7%.
Take `CCC1=Nc2cc(C(=O)NCCc3ccc(OC)c(OC)c3)ccc2Sc2ccccc21`: the “activation” value is inactive: -17.3%.
Turning to `CCCCN(CCCC)CCNC(=O)Cn1nc(CC)n2c(cc3sccc32)c1=O`, the “activation” value was inactive: -17.1%.
`CCc1c(C)sc2c1CCN(Cc1cccc(OC)c1)C2c1ccccc1` (stereo not drawn): the “activation” value was inactive: -7.5%.
For `CCc1ccc(C(=O)CC2(O)C(=O)N(CCc3ccccc3)c3ccc(Br)cc32)cc1` (stereo not drawn), the “activation” value is inactive: -26.6%.
In the case of `Cc1ccc(CSC2=Nc3ccccc3C3=NC(CCC(=O)NC4CCCCC4)C(=O)N23)cc1` (stereo not drawn) it was inactive: -24.9%; in that of `COc1ccc(CCC(=O)NCc2ccc3c(c2)CCN3C(=O)c2ccc(Cl)cc2)cc1`, inactive: 1.06%.
In the case of `Cc1ccc(CNC(=O)C(NS(=O)(=O)c2cccs2)C(C)C)cc1` (stereo not drawn) it was inactive: -7.17%.
Turning to `CCc1ccccc1S(=O)(=O)Cc1ccc(C(=O)NCc2ccc(Cl)cc2)o1`, the “activation” value was inactive: -9.92%.
With `COC(=O)c1ccc(Cl)cc1NC(=O)Nc1nnc(N(C)C2CCCCC2)s1` the figure was inactive: -8.46%; with `CCc1nc2ccccc2n2c(-c3ccc(C)cc3)c3c(=O)n(C)c(=O)n(C)c3c12`, inactive: -16.9%; with `CCc1ccc2oc(C(=O)Nc3ccccc3OC)cc(=O)c2c1`, inactive: -11.3%.
As to `O=C(Cn1c(=O)n(-c2ccc(F)cc2)c(=O)c2sc3ccccc3c21)NC1CCCC1`, the “activation” value is inactive: -2.38%.
For `COc1ccc(-n2nc3ccc(NC(=O)c4c(OC)cccc4OC)cc3n2)cc1`, the “activation” value is inactive: -8.35%.
In the case of `NC(=O)C1CCN(C(=O)c2ccc3c(c2)N(Cc2cccc(Cl)c2)C(=O)c2ccccc2S3=O)CC1` (stereo not drawn) it was inactive: -12.8%; in that of `Cc1csc2nc(COC(=O)CNC(=O)c3ccc(F)cc3)cc(=O)n12`, inactive: -4.49%; in that of `CCOC(=O)c1c(C)[nH]c(C)c1S(=O)(=O)NCC(=O)Nc1ccc(C)cc1C`, inactive: -1.52%.
In the case of `COc1ccc(CSc2nc3ccncc3n2CC(=O)Nc2cc(C)cc(C)c2)cc1` it was inactive: 1.18%; in that of `Cc1cccc(N2CCN(C(c3ccccc3)c3nnc(-c4ccccc4F)o3)CC2)c1C` (stereo not drawn), inactive: -12.9%.
In the case of `Cc1cc(C)cc(NC(=O)C2CCCN(S(=O)(=O)c3cccc4nsnc34)C2)c1` (stereo not drawn) it was inactive: -12.8%; in that of `Fc1ccc(Nc2nc(SCc3ccccc3Cl)nc3ccccc23)cc1`, inactive: -30.6%; in that of `CCOc1ccc(C(=O)c2cn(CC(=O)Nc3cccc(OC)c3)c3cc4c(cc3c2=O)OCCO4)cc1`, inactive: -4.89%.
As to `Cc1nn2c(-c3ccco3)ccnc2c1-c1ccc(Br)cc1`, the “activation” value is inactive: -11.3%.
With `CC(=O)OC[C@H]1O[C@@](COC(C)=O)(O[C@H]2O[C@H](COC(C)=O)[C@@H](OC(C)=O)[C@H](OC(C)=O)[C@H]2OC(C)=O)[C@@H](OC(C)=O)[C@@H]1OC(C)=O` the figure was inactive: -15.9%; with `Cc1ccc(-c2cc(N)n(-c3ccc(C)cc3)n2)cc1`, inactive: -12.4%.
`Cc1c(C(=O)N2CCCCC2)c(S(=O)(=O)NCc2ccc(N(C)C)cc2)c(C)n1C`: the “activation” value is inactive: -27.9%.
On to `Cc1[nH]n2c(=O)cc(-c3ccc(Cl)cc3)nc2c1-c1ccccc1`, for which the “activation” value is inactive: -8.56%.
For the compound `Cc1ccccc1CNC(=O)Cc1ccc(NC(=O)N2CCCCc3ccccc32)cc1`, the “activation” value was inactive: -9.76%.
In the case of `COc1ccc(N2CCN(C(CNC(=O)C(=O)NCc3cccnc3)c3cccnc3)CC2)cc1` (stereo not drawn) it was inactive: -6.14%; in that of `Cn1c(=O)c2c(nc(N3CCOCC3)n2Cc2cccc(Br)c2)n(C)c1=O`, inactive: -11.7%; in that of `CCOC(=O)c1c(C)oc2nc(C)nc(N3CCN(c4ccccc4F)CC3)c12`, inactive: -12.5%.
Turning to `Cc1ccc(-c2[nH]c3c(c2-c2c(-n4cccc4)n(C)c(=O)[nH]c2=O)c(=O)[nH]c(=O)n3C)cc1`, the “activation” value is inactive: -9.27%.
With `Cc1ccc(NC(=O)CSc2nc3c([nH]c4ccccc43)c(=O)n2-c2ccccc2)cc1Cl` the figure was inactive: 2.13%.
In the case of `CCOc1ccc(NC(=O)C2CCN(c3nnc(C)c4c(C)n(-c5ccccc5)nc34)CC2)cc1` it was inactive: -6.79%; in that of `Cc1cccc(N2CCN(C(=O)C3CCN(C(=O)c4cc5sccc5n4C)CC3)CC2)c1C`, inactive: -13.9%.
With `COc1ccccc1CNC(=O)C(C)n1ccc2cc(S(=O)(=O)N3CCCC3)ccc21` (stereo not drawn) the figure was inactive: -14.9%; with `COc1ccc(CNC(=O)c2ccc3nc(CCc4ccccc4)oc3c2)cc1`, inactive: -11.1%.
